In the GPR68 mutational scans of Howard et al. (2025):
Scores whose standard error is large were omitted. The source holds two more conditions with little spread; they are left out. Names with del lack the residues named; names with ins carry added residues between the positions named. For some of these results: The concentration of ogerin is not given here.

B1: GPR68, Q15743 (parent)
chain: MGNITADNSSMSCTIDHTIHQTLAPVVYVTVLVVGFPANCLSLYFGYLQIKARNELGVYLCNLTVADLFYICSLPFWLQYVLQHDNWSHGDLSCQVCGILLYENIYISVGFLCCISVDRYLAVAHPFRFHQFRTLKAAVGVSVVIWAKELLTSIYFLMHEEVIEDENQHRVCFEHYPIQAWQRAINYYRFLVGFLFPICLLLASYQGILRAVRRSHGTQKSRKDQIQRLVLSTVVIFLACFLPYHVLLLVRSVWEASCDFAKGVFNAYHFSLLLTSFNCVADPVLYCFVSETTHRDLARLRGACLAFLTCSRTGRAREAYPLGAPEASGKSGAQGEEPELLTKLHPAFQTPNSPGSGGFPTGRLA

Experiments:
[1] = variants of: B1; experiment: cAMP reporter score (Enrich2 score, wild type = 0); higher = more signal; HEK293T, FACS bins
[2] = variants of: B1; experiment: surface expression score (Enrich2 score, wild type = 0); higher = more signal; HEK293T, FACS bins

| Variant | cAMP reporter score ([1]; pH 5.5) | cAMP reporter score ([1]; pH 6) | cAMP reporter score ([1]; pH 6, modulator: ogerin) | cAMP reporter score ([1]; pH 6.5, modulator: ogerin) | surface expression score [2] |
| --- | --- | --- | --- | --- | --- |
| V34_G35insGS | -1.83 | -1.78 | -2.27 | -1.43 | -2.58 |
| V34_G35del | -1.48 | -1.66 | -1.12 | -1.41 | -2.6 |
| G35S | -1.25 | -0.095 | -1.21 | -0.608 |  |
| G35F | -0.893 | -0.529 | -0.844 | -0.178 | -2.63 |
| G35V | -1.61 | -1.6 | -1.46 | -1.37 | -1.78 |
| G35H | -0.593 | -0.018 | 0.107 | 0.039 | -2.41 |
| G35K | -0.399 |  | -0.678 | -0.869 | -0.315 |
| G35D | -0.889 | -0.429 | -0.995 | -0.832 | -1 |
| G35L | -1.62 | -1.02 | -1.88 | -1.32 | -2.28 |
| G35W | -1.49 | -1.45 | -1.54 | -0.417 | -2.31 |
| G35I | -0.302 | -0.386 | -0.708 | -0.386 | -2 |
| G35A | 0.048 | -0.504 | 0.221 | -0.686 | -1.1 |
| G35R | 1.46 | -0.407 | -1.67 | -0.462 |  |
| G35N | -1.01 | -0.738 | 0.852 | 0.384 | -1.55 |
| G35T | -1.78 | -2.19 | -1.78 | -0.645 | -3.62 |
| G35P | -1.41 | 1.91 | -1.36 | 1.82 | -2.88 |
| G35M | -0.969 | 0.133 | -1.37 | -0.886 | -2.48 |
| G35E | -1.47 | -1.02 | -1.6 | -1.4 | -2.33 |
| G35C | -1.43 | -0.945 | -1.39 | -1.64 | -2.1 |
| G35Q | -1.74 | -1.43 | -2.73 | -0.977 | -1.66 |
| V34T | -0.972 | -1.28 | -1.21 | -0.271 | -2.29 |
| V34Y | -1.18 | -1.78 |  | -0.493 |  |

| Variant | cAMP reporter score ([1]; pH 5.5) | cAMP reporter score ([1]; pH 6) | cAMP reporter score ([1]; pH 6, modulator: ogerin) | cAMP reporter score ([1]; pH 6.5, modulator: ogerin) | surface expression score [2] |
| --- | --- | --- | --- | --- | --- |
| V34W | -0.762 | -0.08 | -0.533 | -0.048 | -1.78 |
| F36D | -1.18 | -1.46 | -1.39 | -0.862 | -2.19 |
| F36C | -1.08 | -0.552 | -0.998 | -0.476 | -2.69 |
| F36E | -1.64 | -0.704 | -1.17 | -0.421 | -2.5 |
| F36A | 0.331 | -0.172 | 0.234 | 0.148 | -1.47 |
| F36M | 0.625 | -0.324 | -0.417 | -0.229 |  |
| F36L | -0.697 | 0.077 | -0.426 | -0.097 | -0.455 |
| F36T | -0.979 | 0.034 | -0.733 | -0.463 | -1.91 |
| F36P | -1.48 | -0.011 |  | -0.472 | -2.56 |
| F36R | -1.44 |  |  | -1.21 | -2.21 |
| F36W | -0.317 | -0.972 | -1.29 | -0.548 |  |
| F36H | -1.53 | -1.85 |  | -0.866 | -2.78 |
| F36N | -1.14 | -0.923 | -0.576 |  | -2.58 |
| F36Y | -1.41 | -0.518 | -1.67 | -1.33 | -1.68 |
| F36Q | -0.415 |  | -1.81 | -1.46 | -1.18 |
| F36G | -0.865 | -0.753 | -1.37 | -1.11 | -2.51 |
| F36K | -1.61 | -1.55 | -1.53 | -1.52 | -3.43 |
| F36I | -0.775 | 0.958 | -1.1 | 1.13 | -1.52 |
| F36V | -0.162 |  | 0.869 | 2.74 | 0.127 |
| P37_A38insG | -0.537 | -0.327 | -0.929 | -0.539 | -2.73 |
| G35_F36del | -0.319 |  | -1.5 | -1.45 | -3.05 |
| F36_P37insG | -1.48 | -0.963 | -0.958 | -0.665 | -2.52 |

| Variant | cAMP reporter score ([1]; pH 5.5) | cAMP reporter score ([1]; pH 6) | cAMP reporter score ([1]; pH 6, modulator: ogerin) | cAMP reporter score ([1]; pH 6.5, modulator: ogerin) | surface expression score [2] |
| --- | --- | --- | --- | --- | --- |
| G35_P37del | -1.37 | -0.738 | -1.52 | -1.21 | -2.21 |
| V34_G35insG | -1.34 |  | -1.64 | -0.891 | -1.96 |
| P37C | 0.743 |  | 0.123 | -0.28 | -1.66 |
| P37T | -0.944 | -1.04 | -1.34 | -1.42 | -2.14 |
| P37S | -0.606 | -0.297 | -0.767 | -1.02 | -1.59 |
| P37F | -0.304 | -0.687 | -1.01 | -0.885 | -1.88 |
| P37I | -1.42 | -1.72 | -1.57 | -1.19 | -2.15 |
| P37L | 0.124 | 0.372 | -0.36 | -0.374 | -2.19 |
| P37H | -1.47 | -0.481 | -1.62 | -0.864 | -2.32 |
| P37Y | -1.14 | -0.825 | -1.06 | -0.917 | -2.31 |
| P37E | -1.32 | -0.329 | -2.29 | -1.52 |  |
| P37K | -1.85 |  |  | -2.4 | -2.78 |
| P37G | -0.375 | 0.323 | -0.539 | 0.304 | -2.21 |
| P37W | -1.03 | -0.764 | -1.25 | -0.968 | -2.23 |
| P37M | -0.524 | -0.085 | -0.7 | -0.757 | -1.86 |
| P37A | -0.945 | -0.021 | -0.759 | -0.754 | -1.88 |
| P37V | -1.14 | -0.548 | -1.93 | -1.2 | -1.49 |
| P37R | -1.03 | -1.27 | -1.4 | -0.802 | -2.62 |
| P37Q | -2.02 |  | -1.15 | -1.07 | -2.32 |
| P37D | -1.32 |  | -1.37 | -1.23 | -2.04 |
